# From the supplement of paper PMC4604168 (melanoma cell lines)
# The list shows a part of the results. Many values rest on one well or one pass, so single values are uncertain.
# What was measured:
# Test in all cases: cell count relative to DMSO control; melanoma cells; higher = more viable cells
# Conditions in all cases: library dose: low library concentration; 72 h
# COLO792 = system: COLO792
# COLO800 = system: COLO800
# COLO829 = system: COLO829
# G361 = system: G361
# IPC-298 = system: IPC-298
# IST-MEL1 = system: IST-MEL1
# LB2518-MEL = system: LB2518-MEL
# LOXIMVI = system: LOXIMVI
# MEL-HO = system: MEL-HO
# 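Note: cell number obtained by counting DAPI-stained nuclei in high-throughput microscope images with image analysis software, screen run in 1,536-well plates.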
Compound,cell count (COLO792),cell count (COLO800),cell count (COLO829),cell count (G361),cell count (IPC-298),cell count (IST-MEL1),cell count (LB2518-MEL),cell count (LOXIMVI),cell count (MEL-HO)
"O=C(/C=C/c1cccnc1)NCCCCC1CCN(C(=O)c2ccccc2)CC1 + O=c1cc(-c2cccc3c2Sc2ccccc2S3)oc(N2CCOCC2)c1 [KU55933] (first compound 0.01 µM, partner dose 1 µM)",59.1%,44.8%,73.3%,7.53%,40.7%,63.9%,95.6%,70.2%,76.2%
"Cc1ccc(Nc2nccc(N(C)c3ccc4c(C)n(C)nc4c3)n2)cc1S(N)(=O)=O [Pazopanib] + CCCCCCCCCCCC1=C(O)C(=O)C=C(O)C1=O [Embelin] (first compound 0.4 µM, partner dose 1.2 µM)",119%,158%,76.1%,90.9%,81.4%,106%,107%,111%,95.7%
"O=C(/C=C/c1cccnc1)NCCCCC1CCN(C(=O)c2ccccc2)CC1 + C=CCn1c(=O)c2cnc(Nc3ccc(N4CCN(C)CC4)cc3)nc2n1-c1cccc(C(C)(C)O)n1 [MK1775] (first compound 0.01 µM, partner dose 0.02 µM)",59.5%,51%,79%,11.6%,43.5%,77.4%,85.3%,83.7%,42.1%
"CC1(C)CCC(c2ccc(Cl)cc2)=C(CN2CCN(c3ccc(C(=O)NS(=O)(=O)c4ccc(N[C@H](CCN5CCOCC5)CSc5ccccc5)c(S(=O)(=O)C(F)(F)F)c4)cc3)CC2)C1 + O=C1NC(=O)/C(=C/c2ccc(-c3ccc(F)cc3O)o2)S1 [AS252424] (first compound 0.4 µM, partner dose 1 µM)",54.8%,55.1%,108%,82.7%,95.2%,78.5%,80.1%,42.9%,61.6%
"CC1(C)CCC(c2ccc(Cl)cc2)=C(CN2CCN(c3ccc(C(=O)NS(=O)(=O)c4ccc(N[C@H](CCN5CCOCC5)CSc5ccccc5)c(S(=O)(=O)C(F)(F)F)c4)cc3)CC2)C1 + O=C(O)C(=O)Nc1sc2c(c1C(=O)O)CCNC2 [TCS401] (first compound 0.4 µM, partner dose 1.66667 µM)",42.7%,72.2%,122%,70.6%,109%,69.5%,94%,55.8%,73.5%
"Cc1ccc(Nc2nccc(N(C)c3ccc4c(C)n(C)nc4c3)n2)cc1S(N)(=O)=O [Pazopanib] + CO[C@@H]1[C@H](N(C)C(=O)c2ccccc2)C[C@H]2O[C@]1(C)n1c3ccccc3c3c4c(c5c6ccccc6n2c5c31)C(=O)NC4 [Midostaurin] (first compound 0.4 µM, partner dose 0.08 µM)",88%,123%,89.8%,99.2%,72.5%,100%,71.9%,92.1%,82.8%
"CC1(C)CCC(c2ccc(Cl)cc2)=C(CN2CCN(c3ccc(C(=O)NS(=O)(=O)c4ccc(N[C@H](CCN5CCOCC5)CSc5ccccc5)c(S(=O)(=O)C(F)(F)F)c4)cc3)CC2)C1 + Oc1nc(-c2ccc(C(F)(F)F)cc2)nc2c1CSCC2 [XAV939] (first compound 0.4 µM, partner dose 2 µM)",43.6%,72.5%,97.5%,82%,95.7%,74.4%,75.6%,64.5%,85.1%
"CC1(C)CCC(c2ccc(Cl)cc2)=C(CN2CCN(c3ccc(C(=O)NS(=O)(=O)c4ccc(N[C@H](CCN5CCOCC5)CSc5ccccc5)c(S(=O)(=O)C(F)(F)F)c4)cc3)CC2)C1 + Cc1cc(N2CCOCC2)cc2[nH]c(-c3c(NC[C@@H](O)c4cccc(Cl)c4)cc[nH]c3=O)nc12 [BMS536924] (first compound 0.4 µM, partner dose 0.2 µM)",44.1%,38.9%,112%,92.4%,94.7%,90.2%,83.9%,63.3%,77.2%
"Cc1ccc(Nc2nccc(N(C)c3ccc4c(C)n(C)nc4c3)n2)cc1S(N)(=O)=O [Pazopanib] + COc1ccc(COc2ccc(Cc3cnc(N)nc3N)cc2OC)cc1 [GW2580] (first compound 0.4 µM, partner dose 1 µM)",104%,91.1%,97.6%,82.9%,76.4%,98.7%,112%,104%,106%
"Cc1ccc(Nc2nccc(N(C)c3ccc4c(C)n(C)nc4c3)n2)cc1S(N)(=O)=O [Pazopanib] + COC(=O)c1sccc1S(=O)(=O)Nc1ccc(Nc2ccccc2)cc1OC [GSK0660] (first compound 0.4 µM, partner dose 1 µM)",116%,105%,94.7%,81.4%,74.5%,97.5%,98.1%,101%,108%
"Cc1ccc(Nc2nccc(N(C)c3ccc4c(C)n(C)nc4c3)n2)cc1S(N)(=O)=O [Pazopanib] + CCN(CC)CCCCNc1ncc2cc(-c3cc(OC)cc(OC)c3)c(NC(=O)NC(C)(C)C)nc2n1 [PD173074] (first compound 0.4 µM, partner dose 0.1 µM)",107%,111%,87.2%,100%,82.9%,95.7%,114%,85.8%,99.6%
"O=C(/C=C/c1cccnc1)NCCCCC1CCN(C(=O)c2ccccc2)CC1 + O=C(Nc1ccccc1)c1cc([N+](=O)[O-])ccc1Cl [GW9662] (first compound 0.01 µM, partner dose 2 µM)",51.8%,52.4%,78.2%,8.08%,46.6%,69.6%,85.9%,56.9%,65.1%
"Cc1ccc(Nc2nccc(N(C)c3ccc4c(C)n(C)nc4c3)n2)cc1S(N)(=O)=O [Pazopanib] + CCc1ccc(CCOc2ccc(CC3SC(=O)NC3=O)cc2)nc1 [pioglitazone] (first compound 0.4 µM, partner dose 2 µM)",113%,76.5%,91.5%,103%,84.1%,107%,110%,120%,104%
"CC1(C)CCC(c2ccc(Cl)cc2)=C(CN2CCN(c3ccc(C(=O)NS(=O)(=O)c4ccc(N[C@H](CCN5CCOCC5)CSc5ccccc5)c(S(=O)(=O)C(F)(F)F)c4)cc3)CC2)C1 + COc1cc2ncnc(Nc3ccc(Oc4ccccc4)cc3)c2cc1OC [SrcI1] (first compound 0.4 µM, partner dose 2 µM)",63.1%,28%,104%,102%,107%,81.3%,119%,82.9%,82.3%
"O=C(/C=C/c1cccnc1)NCCCCC1CCN(C(=O)c2ccccc2)CC1 + Cn1cncc1[C@@](N)(c1ccc(Cl)cc1)c1ccc2c(c1)c(-c1cccc(Cl)c1)cc(=O)n2C [tipifarnib] (first compound 0.01 µM, partner dose 0.01 µM)",49.1%,23.4%,74.5%,8.31%,45.9%,66.5%,62.2%,89.7%,54.7%
"O=C(/C=C/c1cccnc1)NCCCCC1CCN(C(=O)c2ccccc2)CC1 + CCc1ccc(CCOc2ccc(CC3SC(=O)NC3=O)cc2)nc1 [pioglitazone] (first compound 0.01 µM, partner dose 2 µM)",52.7%,16.7%,60.2%,8.71%,40.3%,64.3%,63.3%,87.5%,46.6%
"CC1(C)CCC(c2ccc(Cl)cc2)=C(CN2CCN(c3ccc(C(=O)NS(=O)(=O)c4ccc(N[C@H](CCN5CCOCC5)CSc5ccccc5)c(S(=O)(=O)C(F)(F)F)c4)cc3)CC2)C1 + NCC(=O)Nc1ccc(-n2nc(C(F)(F)F)cc2-c2ccc3c(ccc4ccccc43)c2)cc1 [OSU03012] (first compound 0.4 µM, partner dose 1 µM)",51.8%,38%,78.4%,95.3%,68.3%,63.8%,85.9%,59.6%,63.7%
"CC1(C)CCC(c2ccc(Cl)cc2)=C(CN2CCN(c3ccc(C(=O)NS(=O)(=O)c4ccc(N[C@H](CCN5CCOCC5)CSc5ccccc5)c(S(=O)(=O)C(F)(F)F)c4)cc3)CC2)C1 + Cn1cc(/C=C2\C(=O)Nc3cccnc32)c2ccccc21 [GW441756] (first compound 0.4 µM, partner dose 0.4 µM)",61.8%,50.5%,101%,92.4%,91.1%,79.2%,82.9%,68%,83.8%
"CC1(C)CCC(c2ccc(Cl)cc2)=C(CN2CCN(c3ccc(C(=O)NS(=O)(=O)c4ccc(N[C@H](CCN5CCOCC5)CSc5ccccc5)c(S(=O)(=O)C(F)(F)F)c4)cc3)CC2)C1 + COc1ccc(-c2ccc3c(N4CCOCC4)nc(N4C[C@@H](C)O[C@@H](C)C4)nc3n2)cc1CO [KU0063794] (first compound 0.4 µM, partner dose 0.02 µM)",48.8%,71.1%,92.4%,87.1%,91.8%,78%,79%,36.2%,76.3%
"Cc1ccc(Nc2nccc(N(C)c3ccc4c(C)n(C)nc4c3)n2)cc1S(N)(=O)=O [Pazopanib] + Cn1cc(/C=C2\C(=O)Nc3cccnc32)c2ccccc21 [GW441756] (first compound 0.4 µM, partner dose 0.4 µM)",93.2%,104%,106%,93.3%,86.6%,104%,96%,107%,74.6%
"CC1(C)CCC(c2ccc(Cl)cc2)=C(CN2CCN(c3ccc(C(=O)NS(=O)(=O)c4ccc(N[C@H](CCN5CCOCC5)CSc5ccccc5)c(S(=O)(=O)C(F)(F)F)c4)cc3)CC2)C1 + COc1ccc2c(c1)CCC1C2CCC2(C)C(NCCCCCCN3C(=O)C=CC3=O)CCC12 [U73122] (first compound 0.4 µM, partner dose 0.4 µM)",52.5%,68.7%,101%,83.8%,104%,76.9%,,42.9%,80.8%
"Cc1ccc(Nc2nccc(N(C)c3ccc4c(C)n(C)nc4c3)n2)cc1S(N)(=O)=O [Pazopanib] + O=C(Nc1cccc(Cl)c1)Nc1ncc(CCNc2ncnc3ccsc23)s1 [SNS314] (first compound 0.4 µM, partner dose 0.0008 µM)",92.9%,94%,86.6%,87.4%,82%,90.3%,112%,111%,86.3%
